Laboratory results published in PubChem BioAssay AID1508624 (National Center for Advancing Translational Sciences (NCATS), 2021).
Out of some 48,000 compounds screened, about 120 (0.25%) were called active. Inconclusive results (about 4%) are left out. Calls follow the shape of the dose curve; as a rule, active = well fitted activation curve with a large enough effect; inconclusive = small, poorly fitted or top-dose-only effect, or another doubt; inactive = no such curve, though single readings can be large or run the other way. The list shows a part of the results.

Test: Primary qHTS for Identification of Small Molecule Activators of Huntingtin-Antisense Promoter Activity; also: nearly all actives have a fitted effect of over 55% in size
Conditions: HEK293 HTT-AS promoter firefly luciferase reporter, 24 h; series mostly up to 57.5 µM; activity change, positive = activation: at the top concentration
Procedure, shortened: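 HEK293 Fluc reporter, 2,500 cells/well, 24 h pre-culture; cpds up to 57.5 uM final, 24 h 37 degrees C; Dual-Glo, 10 min RT; normalized vehicle = 0%, zero RLU = -100%.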

Activity change, positive = activation, inactive:
Cc1ccc2c(CN3CCN(Cc4ccccc4Cl)CC3)cc(=O)oc2c1 -12.7%
COc1ccc(CCNC(=O)CCCn2c(=O)c3cccn3c3cccnc32)cc1OC 1.54%
CCCCC1CCC(C(=O)N2CC(=O)Nc3ccc(F)cc3C2c2ccc(F)cc2)CC1 (stereo unspecified) -16.8%
COc1ccc(C2CC(=O)Nc3c2c(=O)nc2c(C)cccn32)cc1OC (stereo unspecified) -6.51%
COc1ccc(NC(=O)c2ccc(CN3C(=O)CCn4nc(C)cc43)cc2)c(OC)c1 -7.68%
CCN(CC)c1nn2c(=O)c(C(=O)NCCc3ccc(C)cc3)cnc2s1 -13.8%
CCn1c2ccccc2c2nnc(N3CCN(c4ccc(F)cc4)CC3)nc21 -6.67%
CCOC(=O)c1c(NC(=O)COc2cccc(C(F)(F)F)c2)sc2c1CCC(C)C2 (stereo unspecified) 2.61% [at 11.5 µM, percent change from vehicle, -100% = no light]
CCOC(=O)c1cc2c(=O)n3ccccc3nc2n(CC2CCCO2)c1=NC(=O)c1ccc(C(C)(C)C)cc1 (stereo unspecified) -22.4%
Cc1nc2sc(C(=O)N(C)Cc3ccccc3)c(NC(=O)c3ccccc3)c2c(C)c1Cl 4.38%
CCOc1ccc(CNC(=O)c2ccc(Sc3ccc(Cl)cc3)c(NC(C)=O)c2)cc1 -45.8%
COc1ccc(NC(=O)CSc2cn(CC(=O)N3CCCCC3)c3ccccc23)c(OC)c1 -21.4%
CCCC(=O)Nc1ccc2c(c1)nc(CN1CCN(C(=O)OCC)CC1)n2C(C)C -41.7%
CC1CCN(C(=O)c2ccc3c(c2)N(Cc2ccccc2F)C(=O)c2ccccc2S3(=O)=O)CC1 -24.1%
Cc1ccc(NC(=O)C(=O)NCC(c2cccnc2)N2CCOCC2)cc1 (stereo unspecified) -6.98%
Cc1c(Cl)cccc1-n1ncc(C(=O)N2CCN(C)CC2)c1C1CCN(C(=O)OC(C)(C)C)CC1 -1.04%
COc1ccc(S(=O)(=O)n2nc(C)c(S(=O)(=O)N3CCCCC3)c2C)cc1 -5.22%
COc1ccccc1N1CCN(C(=O)c2cc3c(=O)n(C)c4ccccc4c3s2)CC1 -7.54%
COc1ccc(-c2nc(SCC(=O)NC3CCCC3)c(-c3ccc(OC)cc3)[nH]2)cc1 -25.6%
COc1ccc(CNC(=O)Cn2nc(C)n3cccc3c2=O)cc1 -5.24%
CCc1cccc2c(CCO)c[nH]c12 7.75%
CC(C)Cn1c(=O)c2ccccc2n2c(CCC(=O)N3CCN(c4cccc(Cl)c4)CC3)nnc12 -2.99%
CC(=O)c1ccc(N2CCN(c3ncnc4c3c(-c3ccccc3)cn4-c3ccc(C)c(Cl)c3)CC2)cc1 -3.6%
COCCCN(Cc1ccco1)C(=O)c1cc2c(s1)-c1ccccc1OC2 -21%
O=C(COc1ccccc1)Nc1sc2c(c1C(=O)Nc1ccccc1Cl)CCCCC2 -11.6%
CCN(Cc1nc(-c2cccc(C)c2)no1)S(=O)(=O)c1ccc(C)cc1 -27.2%
Cc1cccc(C)c1NC(=O)CN1C(=O)CCSc2ccc(S(=O)(=O)N3CCCC3)cc21 -8.38%
COc1ccc(N(CC(=O)Nc2ccc(C)c(C)c2)S(=O)(=O)c2ccc(C)cc2)cc1OC -6.31%
Cc1ccc(C)c(N2C(=O)N(Cc3c(F)cccc3Cl)c3ccccc3S2(=O)=O)c1 -7.55%
COC(=O)c1cc(NC(=O)Nc2ccc3snnc3c2)cc(C(=O)OC)c1 -17.6%
CC[C@H](CC[C@@H](C)[C@H]1CC[C@H]2[C@@H]3CC=C4C[C@@H](O)CC[C@]4(C)[C@@H]3CC[C@]12C)C(C)C -14.7%
Cc1ccccc1-c1noc(-c2ccc(N3CCN(c4ccccc4)CC3)c([N+](=O)[O-])c2)n1 -7.17%
CC(=O)OCc1cc(=O)n2nc(C3CCCCC3)sc2n1 19.9%
Cc1ccc(-c2c(CN3CCN(c4cc(C)ccc4C)CC3)csc2C)cc1 -7.5%
Cc1c(C(=O)NC(C)c2ccccc2)sc2ncnc(N(C)C3CCCCC3)c12 (stereo unspecified) -23.5%
CCCn1cc(S(=O)(=O)c2cccc(Cl)c2)c(=O)c2cc(F)c(N3CCOCC3)cc21 -24.2%
CCN(CC)C(=O)CSc1nnc2ccc3ccccc3n12 8.88%
CCc1ccccc1NC(=O)CN1C(=O)CCn2nc(-c3cccn3C)cc21 -4.41%
CCOC(=O)C1CCN(c2nc3c(S(=O)(=O)c4ccc(Br)cc4)nnn3c3ccsc23)CC1 -15.3%
FC(F)(F)c1cccc(-n2cc(-c3ccccc3)c3c(N4CCCCC4)ncnc32)c1 0.648%
COc1ccc(CCNC(=O)Cn2cc(C(=O)c3ccc(Cl)cc3)c(=O)c3ccc(C)nc32)cc1OC -9.86%
COc1ccccc1CNC(=O)CN1C(=O)CCc2cc(S(=O)(=O)N3CCCCC3)ccc21 -2.9%
COc1ccc(C(=O)NCCn2cc(SCc3cccc(F)c3)c3ccccc32)cc1OC -58.1%
CCCN(CCC)CCNC(=O)Cn1cnc2sc(C)c(S(=O)(=O)N3CCC(C)CC3)c2c1=O 7.66%
CCc1ccc(NC(=O)CC(c2cc(OC)c(OC)c(OC)c2)N2Cc3ccccc3C2=O)cc1 (stereo unspecified) -42.1%
COCCN1C(=O)c2oc3cc(C)cc(C)c3c(=O)c2C1c1cccc(O)c1 (stereo unspecified) 1.15%
COc1ccc(CNC(=O)c2cc3c(-c4ccc(Cl)cc4)nn(C)c3s2)cc1 -28.2%
COc1ccc(S(=O)(=O)N(CCc2ccccc2)CC(=O)NCc2ccccc2)cc1 19.1% [at 11.5 µM, percent change from vehicle, -100% = no light]
CCOC(=O)c1cccc(NC(=O)Cn2nc3c(cc2=O)CCCC3)c1 -15.3%
Cc1ccc(N2CC(C(=O)NCCS(=O)(=O)N3CCN(c4ccccc4)CC3)CC2=O)cc1 (stereo unspecified) -10.6%
Cn1c(=O)c(=O)n(C)c2cc(NS(=O)(=O)c3ccc(Br)cc3)c(Cl)cc21 -27.5%
CCc1ccc(-n2nc(CO)c(C(=O)NCc3ccccc3Cl)n2)cc1 -20%
COc1ccc(NC(=O)N2CCCn3nc(C)cc32)cc1OC -10.6%
CCCCNC(=O)CSc1nc2cc3c(cc2c(=O)n1Cc1ccc(C(=O)NCCc2ccc(OC)c(OC)c2)cc1)OCO3 -1.97%
CCn1c(C(=O)NCc2ccccc2Cl)cc2sc(Cl)cc21 -19.7%
CC(Oc1ccccc1)C(=O)Nc1ccc(C(=O)OCc2cc(=O)n3nc(C4CC4)sc3n2)cc1 (stereo unspecified) -31.5%
O=C(CCC(=O)N1Cc2ccccc2Oc2ncccc21)NCc1cccc(Cl)c1 -13%
Cc1cc2[nH]c(=O)c(=O)[nH]c2cc1S(=O)(=O)N1CCN(c2ccccc2)CC1 -5.73%
COc1ccc(Cc2nc3ccccc3n2Cc2ccccc2C)cc1 -36.3%
COc1ccc(-c2cc3ccc(O)c(CN4CCCC(C)C4)c3oc2=O)cc1OC (stereo unspecified) -1.18%
O=C(NCc1cccc(Cl)c1)c1ccc(NC(=O)N2CCSc3ccccc32)cc1 -8.28%
COc1ccc(-c2cn3c(n2)sc2cc(C(=O)Nc4ccc(C)c(Cl)c4)ccc23)cc1 23.7%
CCOC(=O)c1[nH]c2c(c1Cc1ccccc1C)C(=O)CC(c1ccccc1)C2 (stereo unspecified) -8.69%
CCOc1ccc(-c2nnc(SCC(=O)Nc3ccc(C)cc3C)o2)cc1 -51%
CCc1ccc(NC(=O)c2cnn(-c3c(C)cccc3C)c2C2CCN(C(=O)OC(C)(C)C)CC2)cc1 -18.6%
Cc1c(C(=O)N2CCCCCC2)c(S(=O)(=O)Nc2cccc(C#N)c2)c(C)n1C -2.96%
CC1(C)N=C(SCc2ccc(Cl)cc2)c2ccccc2N1 12.4%
O=C(NCCc1ccccc1)C(=O)NCC(c1cccs1)S(=O)(=O)c1cccs1 (stereo unspecified) -31.9%
Cc1cc(=O)[nH]c2nnc(SCc3ccccc3F)n12 -10.4%
Cn1c(=O)cc(SCC(=O)NCc2ccc(F)cc2)c2cc(Cl)ccc21 -4.33%
Cc1ccc(S(=O)(=O)N2CCN(Cc3cc(=O)n4nc(-c5ccccc5Cl)sc4n3)CC2)cc1 1.81%
CCOC(=O)c1c(C)[nH]c(C)c1S(=O)(=O)N1CCC(C(=O)Nc2ccccc2CC)CC1 -12.7%
COc1cccc(C2C(C(=O)Nc3ccccc3OC)=C(C)Nc3nc(-c4ccco4)nn32)c1 (stereo unspecified) -15.3%
COc1ccc(-n2nc(C(=O)NCCc3ccc(OC)c(OC)c3)c3c4ccccc4n(C)c3c2=O)cc1 -9.71%
Cc1ccccc1-c1nc(CS(=O)(=O)CC(=O)NCCCc2ccccc2)c(C)o1 -18.9%
CCC(Sc1nnc2c3ccccc3n(CC)c2n1)C(=O)Nc1ccc(NC(C)=O)cc1 (stereo unspecified) -8.43%
CCCOc1cccc(C2c3c(oc4ccc(F)cc4c3=O)C(=O)N2CCc2ccc(OC)cc2)c1 (stereo unspecified) -6.44%
COc1ccc(-c2noc(CSc3nc4ccc(C)cc4[nH]3)n2)cc1 -35.1%
O=C(Cn1nc(Cc2cccnc2)c2ccccc2c1=O)Nc1ccc(F)c(Cl)c1 -39.2%
COc1cccc(CNC(=O)c2sc3ncccc3c2-n2c(C)ccc2C)c1OC -34.6%
COc1ccc(C(=O)NCC(c2ccc(Cl)cc2)N2CCCCC2)cc1 (stereo unspecified) -8.19%
COc1ccccc1CNC(=O)Cn1nc(C)n2cccc2c1=O -2.16%
CCC(C(=O)Nc1cc(C(F)(F)F)ccc1Cl)n1nc(C)c2sc3ccccc3c2c1=O (stereo unspecified) -8.92%
O=C(Cn1cnc2onc(-c3ccc(F)cc3)c2c1=O)N1CCN(c2ccc(F)cc2)CC1 -23.5%
Cc1ccc(Cc2c(C)nc3nc(SCC(=O)NCCC(C)C)nn3c2C)cc1 8.62%
Cc1nn(C)c(C)c1S(=O)(=O)N(CC(=O)Nc1ccc(F)cc1F)c1ccc(C(C)C)cc1 -34.1%
COc1ccc(NC(=O)Cn2c(=O)n(-c3ccc(C)cc3)c(=O)c3c2c2cc(C)ccc2n3C)cc1 2.12%
O=C(CN1C(=O)CCn2nc(-c3ccccc3)cc21)NCc1ccccc1 -11.1%
COc1cccc(CNC(=O)C(=O)NCC(c2ccco2)S(=O)(=O)c2ccccc2)c1 (stereo unspecified) -37.3%
COc1ccc(C2CC(=O)c3cc(-c4nc(-c5cccc([N+](=O)[O-])c5)cs4)c(=O)n(-c4cccc(C)c4)c3C2)cc1 (stereo unspecified) -3.81%
Cc1ccc(NC(=O)CSc2nc3ccc(NC(=O)c4ccco4)cc3s2)cc1 -22%
